Measurements: the supplement of paper PMC11417369
± gives the standard deviation of the averaged measurements. Some of the results follow.

tested on: PfAP2-LT AP2 domain (GST-tagged); assay: gcPBM binding intensity (ln(normalized median fluorescence intensity)); higher = stronger DNA binding
Procedure, shortened: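 Plasmodium falciparum DNA-binding domains carrying a GST tag were expressed in E. coli and applied for 1 h, at about 25 μg on average, to an Agilent 4 × 180k array. The array held primer-extended double-stranded 36-bp intergenic genomic probes together with negative controls, and binding took place in 1× PBS with 1% milk, 0.2 mg/ml BSA, 0.5% salmon testes DNA and 0.03% Triton X-100. An Alexa488 anti-GST antibody detected bound protein, and the array was scanned at 488 nm. Binding intensity is taken as the highest Masliner-normalised natural-log median intensity across replicate spots of either probe orientation.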

Row | Sequence | gcPBM binding intensity (ln)
1 | TAATATCAATATAAAGTACACACTATAGTATGTATT [CACACA_site2280] | 8.95 ± 0.4
2 | TAGTTACTTCTTATATAAAATATGTATATAAAAATA [GTGCAC_negctrl_site190] | 8.31 ± 0.38
3 | TTCATATTATAGTGCACACAAAAATATATATATGGT [CACACA_site2855] | 9.16 ± 0.3
4 | TTGTTTGTTGTAACGTGTACAGATAAAAATAAAGGG [XGTACX_site375] | 8.78 ± 0.49
5 | ACATATTAATTATAAAGTACATATATATATATATAT [XGTACX_site4540] | 9.47 ± 0.11
6 | TCTCTCATTTATTTTTGTACTTAATCCAGCACGTTT [XGTACX_site1369] | 8.94 ± 0.57
7 | GCTTCATTTTAAACTTGTACTTATTTTTTGGTAAAT [XGTACX_site8879] | 8.79 ± 0.47
8 | ACTACAAGGCAATACAGTACATATAAATGTCATAAT [XGTACX_site8468] | 9.06 ± 0.49
9 | TACCTTTTATTAATGTGTACCTAAAATATAATACTT [XGTACX_site192] | 8.71 ± 0.45
10 | AAAAAGGTTATTGGTACACACATATGTATTTATATA [CACACA_site4464] | 9.02 ± 0.34
11 | TAACAAAACCTTATATGTACACACATATACATCACA [XGTACX_site6772] | 9.2 ± 0.52
12 | TTATCATTTTAAATCACACACATATATATATATATA [CACACA_site2849] | 9.51 ± 0.15
13 | TTAAAAATGAACATATGTACATATATATATATATAT [XGTACX_site7923] | 9.66 ± 0.43
14 | AATAATGAAGCTTATGCACACGTTCATTATTTATAT [CACACA_site5736] | 9.04 ± 0.39
15 | ATAATTTTTTTTTTTTTTTTTTGAAAGTAGCATATG [CACACA_negctrl_site732] | 8.28 ± 0.44
16 | AAAAGAATTACTTTCACACATATATATCTGTAAATA [CACACA_site5798] | 8.58 ± 0.37
17 | TACATATTTATATACACACACACCCTAAAAATATAT [CACACA_site6861] | 9.68 ± 0.27
18 | TTTTGAATATTTGGTCGTACGTAAAAATAGATAATT [XGTACX_site5755] | 8.54 ± 0.35
19 | TTTCATATTTTGTCCTGTTTTTTTTTTTTTTTTCTT [CACACA_negctrl_site993] | 8.77 ± 0.52
20 | TATTTTATGTAAATTGGTACACATATGTCAGTAAAA [XGTACX_site7111] | 8.62 ± 0.42
21 | GATGCTAAAATTTATACACACAAAAAAAAAAAATTC [CACACA_site3284] | 8.91 ± 0.48
22 | CAATAATTTTTTGTGGGTACAAATAATTTTTTAAAT [XGTACX_site2407] | 8.35 ± 0.4

Row | Sequence | gcPBM binding intensity (ln)
23 | AGGAGAAAAGATAAAGACTTCAAGAAAAAAAAATAA [TGCATGCA_negctrl_site258] | 8.47 ± 0.61
24 | AAAATATAAAAAGTCACACATATATATATTTATTTA [CACACA_site4872] | 8.64 ± 0.45
25 | TTGAATGAAAAAATTTGTACTCATATAAATAATTTA [XGTACX_site4628] | 8.24 ± 0.48
26 | ATAAAATATTAGACATTTATTAATATTACACATATC [XGTACX_negctrl_site364] | 8.66 ± 0.41
27 | ACAAAATAAACCACGTGTACAAATTTATAATGTGTA [XGTACX_site1153] | 9.09 ± 0.42
28 | ATATATATATATTCCACACACACACCCAAAAAAAAA [CACACA_site3649] | 9.745 ± 0.05
29 | TTTTATTTTTTATTTGCACACAATATGTAAAAAAAT [CACACA_site2927] | 8.78 ± 0.38
30 | AATAATTTTTAAATATAAACATTTTTTTTTTTTTTT [GTGCAC_negctrl_site532] | 8.11 ± 0.45
31 | ATTAAATGCACATATACACACACCCAATTTTAAGTT [CACACA_site3049] | 9.53 ± 0.34
32 | TATTTTAAAAAAAAAAGTACACATAATATATATAAC [XGTACX_site5416] | 8.57 ± 0.57
33 | ATACATTTATTGTATTGTACATAATATTATATATTC [XGTACX_site7115] | 8.88 ± 0.4
34 | TAATATAATAGAAGTGTACACACATATTTATGGGTG [CACACA_site9023] | 9.35 ± 0.37
35 | TAATATAATGATGCAGTGCATATGTTAAAATGAAAA | 8.93 ± 0.52
36 | TCAAAAGAATAATTGGTGCAAATTATATAATATAAT [GTGCAC_site9804] | 8.73 ± 0.45
37 | ATATTTATGGAAAAAGAACACACAATCAAACAAAAA [CACACA_site9233] | 9 ± 0.47
38 | CTTTTTTATATCTCTACACACATTTATAACCATTTG [CACACA_site4897] | 9.1 ± 0.6
39 | ACAAGGAATATATAAGATAATTTTAAATATAACACG [CACACA_negctrl_site1734] | 8.73 ± 0.51
40 | ATATATATAATTTTTACACACGCAATAAATATATAT [CACACA_site218] | 8.92 ± 0.33
41 | TATTAATTAAACCATACACACATAACTTTTTTATAA [CACACA_site6526] | 8.78 ± 0.35
42 | ATTTTTTTCTTAGGAGTGCACTTATATTTATTTTAT | 8.95 ± 0.45
43 | TATAAGGTGTCCTATACACACTCCAATAAATATATA [CACACA_site2091] | 8.73 ± 0.47
44 | TAAAGAGAAAAACATACACACACAACAAAATATGTA [CACACA_site8872] | 9.52 ± 0.35
